Measurements published in the supplement of paper PMC11417369.
This is one part of the list.

Test system: PF3D7_0420300 AP2 domain 1 (GST-tagged)
Assay: gcPBM binding intensity (ln(normalized median fluorescence intensity)); higher = stronger DNA binding
How it was run: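 An Agilent 4 × 180k array carrying primer-extended double-stranded 36-bp intergenic genomic probes and negative controls received GST-tagged P. falciparum DNA-binding domains expressed in E. coli, about 25 μg on average, for 1 h. The binding buffer contained 1× PBS, 1% milk, 0.2 mg/ml BSA, 0.5% salmon testes DNA and 0.03% Triton X-100. Binding intensity is the top Masliner-normalised natural-log median intensity across replicate spots of either probe orientation, read after Alexa488 anti-GST antibody staining and a 488 nm scan.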

Row | Sequence | gcPBM binding intensity (ln)
1 | TAAAATATATATATGTGTACATAACATATAATTTTT [XGTACX_site1725] | 9.13
2 | TTATTTAGTATATTATGTACATACAATGCCTGGGAA [XGTACX_site4578] | 9.21
3 | AGTATAAAAATATATTTACACACTATATATATCGAA [CACACA_site8494] | 9.43
4 | ATATGTTACAGACACACACACACATAAAAAAACAAA [CACACA_site3248] | 10.1
5 | TATTGTTGTTCATGTACACACTATAATAAAAGCAAT [CACACA_site6148] | 9.48
6 | TTTTCATATTATAGTGCACACAAAAATATATATATG [CACACA_site8929] | 9.32
7 | TCTTTTAAACAGTACACACACACATCTATATTTATA [CACACA_site6559] | 10
8 | CTCTGTTGTCTTAGTTGTACAATAGAAAAAAATAAT [XGTACX_site7043] | 9.02
9 | ATATATATATATATATGTACATATTGTATTAATTAT [XGTACX_site1919] | 9.25
10 | TGATTGAGTAAAATGGGTACATATACACTATTACAT [XGTACX_site5232] | 9.19
11 | TACAGGAATATTTTTACACACTAAAAATTATAAAAT [CACACA_site1649] | 9.39
12 | TTTTTTACTTTTGAGACATTTCATATTTTTATTCAC [GTGCAC_negctrl_site730] | 9.19
13 | AAAGGTTCACATTATATAGTTATGTAATATATATGT [CACACA_negctrl_site542] | 9.21
14 | ATATTGTATTTATGTACACACATTTTTGGAATATGA [CACACA_site4861] | 9.54
15 | TTTTTTCTCTGTGGCTGTACTTTGAAGATATTTTAT [XGTACX_site8243] | 9.52
16 | TAGATATATAGACACACACACATTAATACCTATATT [CACACA_site7605] | 10.1
17 | TGTCATTTAATTTTTTGTACGAAAAAAACATATAAA [XGTACX_site4952] | 8.88
18 | GTATATATATATGTATATATTTTATTTTATTTTTAT [CACACA_negctrl_site1439] | 9.3
19 | TATATATATAGACACACACACACATATATATATATA [CACACA_site9366] | 10
20 | AGTTGTTTTAATAATGCATGTTATTTTATTTTAATA [TGCATGCA_site168] | 9.46
21 | GTACATAGATTGTACATACACACCTATATAAATATC [CACACA_site3225] | 9.42
22 | AATATATGGTTCCATGATATTAAATTCAATTTAATG [CACACA_negctrl_site605] | 9.02
23 | TTTTTTTTGTTCTATACAATTATAAAAATAAAATAT [XGTACX_negctrl_site53] | 8.66

Row | Sequence | gcPBM binding intensity (ln)
24 | GCTTATATAAAAAGTTGTACAACCGAATCTTTTACA [XGTACX_site2119] | 9.2
25 | TAATATCATTTATGTAGTACTATAACAAGAACTATA [XGTACX_site3618] | 9.03
26 | AAAAAAAAAAAGCACACACACATATGAGTATATATA [CACACA_site4683] | 10
27 | AATGTAAAAGTAAACACACACATATATAAATACATA [CACACA_site5386] | 9.95
28 | TACACAAGCAGACACACACACATATATATATATATA [CACACA_site1270] | 9.72
29 | ATTCTTATTTAAAGGTGTACTCTTAAACAGATTTTA [XGTACX_site3526] | 8.98
30 | ATTTTAATATAAAATACACACTACTATTATAAATAT [CACACA_site4917] | 9.42
31 | GTACACATATAGTAATAATTTTATTATATTTTTTTG [CACACA_negctrl_site843] | 9.28
32 | GGTCTTCTTAATATACTGCACTGTATACGTATATAA | 9.49
33 | AGATTTAAATTTATATGTACATAATATGGGCGTATA [XGTACX_site6631] | 9.27
34 | TTCATAAAATGATATTGTACAAATAAATAATAGTAT [XGTACX_site819] | 9.34
35 | TGTAGATTTTGTAACACACACATATATATACATATA [CACACA_site2405] | 9.69
36 | CTTATTATTATATGGGTGCTCATATTTTTCTTTTTT [GTGCAC_site9723] | 9.4
37 | ACAAACATTAGGGAAGCATGCAATATTTTTTTACAT [TGCATGCA_site372] | 9.28
38 | ATTATATACATATATATACACACGTAGTTTCTATTT [CACACA_site8697] | 9.38
39 | TACTTTTTATTTTCTTGTACTTAATTGTCCAGATTT [XGTACX_site4334] | 9.42
40 | ATATATATATATAAATGTACATTTTTCAATAGTTTT [XGTACX_site7449] | 9.39
41 | TATAAATAAATAGATACACACATATATATAAATACA [CACACA_site155] | 9.74
42 | TCTATATCTTTCAACACACAAATTTTTTTTTCCATC [CACACA_site4238] | 9.37
43 | AAAAAAAAAAAAAAAGTGCACAGTCGTTTTAAAAAA [GTGCAC_site9848] | 9.14
44 | AAATCATTTAAGAACACACAAATATTTCCATTAAAT [CACACA_site6808] | 9.42
45 | ATTAACTATCATAACACACACAGTAGACATATTTTT [CACACA_site1822] | 9.85
46 | CTTTTCTCCCTCCATAGTACAATTATAAAAATATAT [XGTACX_site3090] | 9.28

Row | Sequence | gcPBM binding intensity (ln)
47 | ATGCAAAGTTTATAAAGTACATAAGTCAAAATAAAA [XGTACX_site1441] | 9.35
48 | AAGATAATATTTTCTTGTACGCATGCACATACAAAT [XGTACX_site7181] | 9.09
49 | CTCAATGTTTGCGATACATGCAAAAATTTTTAGAAT [TGCATGCA_site165] | 8.96
50 | TACATTTCATTGTAATCATAAAAAATAAAGAAAAAA [XGTACX_negctrl_site542] | 8.93
51 | TAGAAGCATGGACACACACACATACATACCCATACA [CACACA_site4916] | 10
52 | TTATTTTTCCGGAATAGTACATAGACGCAGATATAA [XGTACX_site6356] | 9.27
53 | AAGAGAAAAATATATACACACACATAAATATATACA [CACACA_site8573] | 9.96
54 | AAGGGGTAAAGAAAAACACACAAAAAATAAAAATAT [CACACA_site361] | 9.65
55 | GATGAAAATAGAAATACACACTAAAAAATAAAATTA [CACACA_site4764] | 9.42
56 | GAAATAATTCGATGTGCATGTAACGTTTCCCCAAAG [TGCATGCA_site122] | 9.32
57 | TGCATACTTTTGTAAGTGCATAAAATCGTACCATGC | 9.07
58 | AATTAAAAAAAATACACACACACATACACATATATA [CACACA_site3298] | 10.2
59 | CCAAAAAAAAAAAAAAGTACATAAAAACAAGAGAAT [XGTACX_site3037] | 9.39
60 | CGTATTTATATAATTACACACCATATTATAATTATT [CACACA_site3760] | 9.49
61 | GAAAGGATATATATATATATATATATAATACATTTC [GTGCAC_negctrl_site677] | 9.09
62 | TATATATACATACATACACACATATATATATATATT [CACACA_site4110] | 9.59
63 | ACATATAATATATAATGTACAAAATTGTTAACAATA [XGTACX_site3798] | 9.31
64 | TACAGATACAGATACACACACACACCGAAATAAATA [CACACA_site4865] | 10.3
65 | CTTTAAGTTATATGAAGTACAATTTAAAAAAATGAA [XGTACX_site358] | 8.91
66 | AAAATAAAAAGAAAAAGAAAAAAGGGGGGGTAGGGG [CACACA_negctrl_site1048] | 10.2
67 | TAAATTCCTACATACGCATGTACATTAAAATTTTAA [TGCATGCA_site215] | 9.13
68 | ATACATTCAATGAAATGTACGTTTATTTACAGAAGA [XGTACX_site2999] | 8.9
69 | AAATAAAAAACAGTGGCACACATTATGTATCCACCT [CACACA_site3756] | 9.32

Row | Sequence | gcPBM binding intensity (ln)
70 | AAAAAAAAAATATACACACACATATAAATATAAATA [CACACA_site7574] | 10
71 | TTAAAGTAGAGAAAATGTACATTTTATTAACACAAT [XGTACX_site6369] | 9.28
72 | TACTATTATAAATATGTGCACTTCAATAATATACTA | 9.23
73 | CTTAGGTTAAAAGTGTGTACATAAAAACATATATAA [XGTACX_site2213] | 9.55
74 | ATAAGAAAAAGACACACACACAAAAAAAAAAAAAAA [CACACA_site2828] | 9.68
75 | TAAATAAATTATTTTCGTACTTATTTATTTTAATTA [XGTACX_site283] | 9.03
76 | AAAAAAAAAAAACACACACACAAATACAAATGGTAA [CACACA_site1720] | 10.1
77 | AAGTTATTGATATATACACACAAATATAAATAATAT [CACACA_site6695] | 9.6
78 | AATACATATCAAAGCTGTACAAAGTAAATTTTACTT [XGTACX_site3525] | 9.37
79 | TTCAATAGGTATAATTGTACTTAATAATATATTGTT [XGTACX_site8363] | 9.27
80 | TAATGGTTATCACTAACATGCAGTAATATTATATAG [TGCATGCA_site176] | 9.14
81 | TTTTTTCTTTTTTTTTGTACATATAATATTTATGTT [XGTACX_site302] | 9.4
82 | ATATATATATGTATATGTACATATATATGGTAACTC [XGTACX_site681] | 9.38
83 | ATATAATATTTATATGCACACTTTTCTATATATAAG [CACACA_site6100] | 9.42
84 | TAAAATATTATTTATTTACACACCAATCTTCTTTTC [CACACA_site9320] | 9.38
85 | TCGTATTTAAAATGTAGTACATAATTTGAAAAATAA [XGTACX_site5832] | 8.88
86 | AAGGATCACAGACAAACACACATATATATATATATA [CACACA_site4469] | 9.33
87 | TTTTGACCATATCTGTTGCACTTTTGTGCTATTCGA | 9.14
88 | CATTATGTCGTAAATACACACATACATATACATACA [CACACA_site8383] | 9.57
89 | AAATAATTTGTTGACACACACACACCCATACAGATA [CACACA_site5291] | 10.1
